# Data published in PubChem BioAssay AID445 (National Center for Advancing Translational Sciences (NCATS), 2006).
# Among all 110,000 compounds or so, about 40 (0.04%) were called active. Inconclusive means that the source gave no clear call. Such entries were picked first, then a sample of the others. Calls come from the whole dose curve; as a rule, active = well fitted curve in the direction sought with a large enough effect in the signal ratio (not every such curve was filed as active); inconclusive = small, poorly fitted or top-dose-only effect, or a change in a side signal; inactive = flat fitted curve, though single readings scatter; the % refers to the signal ratio. A potency beside an inconclusive call is a rough fit, not a confirmed value.
# Experiment: IkB Signaling;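 for IkBa stabilization activation: 0% = basal untreated cells and 100% = reference inhibitor full response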
# Details: ABC-DLBCL IkBa-CBG/CBR dual luciferase ratio (green luciferase fused to IkBa over red control in OCI-Ly3 lymphoma cells), 4 h; IkBa stabilization activation: at 57.1 µM (top of the series), scaled: untreated 0%, proteasome inhibitor 100% unless noted
# How it was run: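 Luminescence ratio of IκBα-fused green versus native red beetle luciferase in OCI-Ly3 cells, 4 h post-doxycycline with compound; red signal alone, scaled from basal (0%) to zero light (-100%), flagged nonspecific or cytotoxic effects.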
# Potency is the fitted concentration of half-maximal effect.
Structure (SMILES),IkBa stabilization activation,Potency
Cc1cc(=O)c2cc(C(=O)Nc3ccccc3)ccc2[nH]1,inconclusive: -0.717% [signal inhibitor],–
Cc1ccc2cccc(NC(=O)c3ccc(-c4ccc(Br)cc4)o3)c2n1,–,"inconclusive: 7.94 µM [signal inhibitor, partial curve]"
Oc1ccccc1C1=Nc2ccccc2N=C(c2ccco2)C1,inconclusive: 8.23% [signal inhibitor],–
COc1cccc(C2C(C(=O)Nc3ccccc3OC)=C(C)Nc3nc4ccccc4n32)c1 (stereo not drawn),inconclusive: 14.1% [signal inhibitor],–
COc1ccccc1NC(=O)CSc1nc(N)cc(N)n1,inconclusive: 10.7% [signal inhibitor],–
COc1ccccc1N1CCN(C(=O)CCS(=O)(=O)c2cc(Br)cc3c2N(C(=O)C2CC2)CC3)CC1,inconclusive: -4.43% [signal inhibitor],–
COc1ccc2oc(=O)c(C(=O)NCCc3c(C)[nH]c4ccc(Br)cc34)cc2c1,inconclusive: -0.0703% [signal inhibitor],–
Cc1ccc(-c2csc(/C(C#N)=C/c3ccccc3Cl)n2)cc1,inactive: -0.571%,–
Cc1ccc(-n2ncc3c(=O)n(CC(=O)N4CCCc5ccccc54)cnc32)cc1C,inconclusive: 2.25% [signal inhibitor],–
COC(=O)c1ccccc1NC(=O)CNc1cc(Cl)ccc1N1CCOCC1,inconclusive: 4.6% [signal inhibitor],–
O=C(NC1CC1)c1c[nH]c2ccc(S(=O)(=O)Nc3cccc(C(F)(F)F)c3)cc2c1=O,inconclusive: 7.61% [signal inhibitor],–
COc1cccc(CNC(=O)CCCN2C(=O)CCn3nc(-c4cccn4C)cc32)c1,inconclusive: 1.96% [signal inhibitor],–
CCOC(=O)c1cccc(NC(=O)Cn2c(=O)nc(-c3ccccc3F)c3cc(Cl)ccc32)c1,inconclusive: 1.98% [signal inhibitor],–
CCn1c(=O)c2cc(C(=O)N(CC(C)C)CC(C)C)sc2c2ccccc21,inconclusive: -1.11% [signal inhibitor],–
Cc1ccc(C2NC(=O)c3c(sc4c3CCN(C)C4)N2)o1 (stereo not drawn),inactive: -2.1%,–
CC(=O)c1ccc2c(c1)Nc1ccccc1S2,inactive: -3.53%,–
COc1ccc(CCNC(=O)CSc2nc(N)c3c(C)c(C)oc3n2)cc1OC,inactive: -1.08%,–
CCCn1c(=O)c(C(=O)Nc2ccccc2C(=O)OCC)c(O)c2ccccc21,inconclusive: 13.8% [signal inhibitor],–
CCn1c(SCC(=O)Nc2ccccc2N2CCOCC2)nnc1-c1ccccc1,inactive: -1.88%,–
O=C(Cn1c(=O)n2ncnc2c2c3c(sc21)CCCC3)c1ccccc1,inactive: -0.329%,–
CCOC(=O)c1cc(-c2ccccc2)n(CCC(=O)NC2CCCCC2)c1C,inactive: -2%,–
CCOC(=O)c1ccc(NC(=O)CN2c3ccccc3S(=O)(=O)c3ccccc32)cc1,inconclusive: 0.186% [signal inhibitor],–

Structure (SMILES),IkBa stabilization activation,Potency
CN(C)c1ncc2nc(CCc3ccccc3)c(=O)n(C[C@H]3CCCO3)c2n1,"inactive: -6.44% [at 11.4 µM, scaled: untreated 0%, proteasome inhibitor 100%]",–
Cc1cc(C)cc(Nc2cc(C)nc3nncn23)c1,inconclusive: 10.1% [signal inhibitor],–
Cc1cccc(-c2nc3scc(CCNC(=O)c4ccc(Br)o4)n3n2)c1,inconclusive: 0.00717% [signal inhibitor],–
CC(=O)NCCNc1nc(-c2ccc(N(C)C)cc2)nc2ccccc12,"inactive: -7% [at 11.4 µM, scaled: untreated 0%, proteasome inhibitor 100%]",–
CCOC(=O)N1CCN(c2ncc3c(n2)CC(c2ccccc2O)CC3=O)CC1 (stereo not drawn),inconclusive: 5.81% [signal inhibitor],–
COc1ccc(CCNC(=O)CCc2c(C)nc3cc(-c4ccccc4OC)nn3c2C)c(OC)c1,inconclusive: 16.9% [signal inhibitor],–
CCOC(=O)c1ccccc1NC(=O)n1ncc2cc(Cl)ccc21,inconclusive: 3.2% [signal inhibitor],–
Cc1noc(C)c1S(=O)(=O)Nc1ccc(C(=O)Nc2ccc(Br)cc2)cc1,inconclusive: -1.85% [signal inhibitor],–
O=C(c1ccccc1Cl)N1CCN(c2ccccn2)CC1,inactive: 0.933%,–
CCOc1cccc(C(=O)Nc2ccc3oc(-c4cccnc4)nc3c2)c1,inconclusive: 19.5% [signal inhibitor],–
COCCn1c(=O)c(-c2cccc(C#N)c2)nc2cnc(N3CCN(C)CC3)nc21,"inactive: 2.73% [at 11.4 µM, scaled: untreated 0%, proteasome inhibitor 100%]",–
CCCCOc1ccc(CNC(=O)c2cc3n(n2)CCCN(Cc2ccc(C)cc2)C3=O)cc1,inconclusive: 2.04% [signal inhibitor],–
CCCCSCCCNC(=O)c1cn(CC)c2ccc(S(=O)(=O)N3CCCCCC3)cc2c1=O,inconclusive: 3.04% [signal inhibitor],–
COc1ccc(OCCn2c(C)nc3cc(C)c(C)cc32)cc1,inconclusive: -0.361% [signal inhibitor],–
CC(=O)NCC(=O)N[C@H](CCC(=O)O)C(=O)O,inactive: 0.557%,–
COc1ccc(-c2c(C)nn3c(N4CCN(c5ccccc5)CC4)cc(C)nc23)cc1OC,inconclusive: 1.69% [signal inhibitor],–
COc1ccc(NC(=O)CC2C(=O)N(c3ccc(F)cc3)C(=O)N2Cc2ccc3c(c2)OCO3)cc1 (stereo not drawn),inconclusive: -0.936% [signal inhibitor],–
COc1ccc(OC)c(-c2cc(C(=O)Nc3c(C)nn(Cc4ccccc4)c3C)no2)c1,inconclusive: 1.47% [signal inhibitor],–
CN(C)c1ccc(-c2nc(N3CCNCC3)c3ccccc3n2)cc1,"inactive: -4.89% [at 11.4 µM, scaled: untreated 0%, proteasome inhibitor 100%]",–
CCCn1c(=N)c(C(=O)NC2CCCC2)cc2c(=O)n3cccc(C)c3nc21,inconclusive: -1.43% [signal inhibitor],–
COc1ccc(/C=C(/C#N)c2nc(-c3ccc(-c4ccccc4)cc3)cs2)cc1OC,inactive: -0.58%,–
